Assay results: PubChem BioAssay AID1508624 (National Center for Advancing Translational Sciences (NCATS), 2021)
In all, about 48,000 compounds went through this assay and about 120 (0.25%) were called active. Another 4% or so got no clear call; they are omitted. The call rests on the fitted dose curve; in most records, active means well fitted activation curve with a large enough effect; inconclusive means small, poorly fitted or top-dose-only effect, or another doubt; inactive means no such curve, though single readings can be large or run the other way. The list shows a part of the results.

Assay: Primary qHTS for Identification of Small Molecule Activators of Huntingtin-Antisense Promoter Activity; further: nearly all actives have a fitted effect of over 55% in size
Conditions: HEK293 HTT-AS promoter firefly luciferase reporter, 24 h; series mostly up to 57.5 µM; activity change, positive = activation: at the top concentration
Summary of the method: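 Quantitative HTS used concentration series of up to 57.5 uM final on HEK293 luciferase reporter cells, 24 h at 37 degrees C. Readout was Dual-Glo firefly luminescence.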
With Cc1ccc(CNC(=O)CSc2ncc3c(n2)-c2ccc(Cl)cc2N(Cc2ccccc2)S3(=O)=O)cc1 the “activity change, positive = activation” value was inactive: 10.7%.
With Cc1ncc(CO)c(CO)c1O the “activity change, positive = activation” value was inactive: -13.7%.
In the case of Cc1ccc(NC(=O)CCCn2c(=O)c3cccn3c3cccnc32)cc1C, the “activity change, positive = activation” value is reported as inactive: -7.02%.
In the case of CCc1ccccc1NC(=O)[C@@H](c1ccccc1)N1Cc2ccccc2C1=O, the “activity change, positive = activation” value is reported as inactive: -15.5%.
In the case of COCCCNC(=O)c1ccc2c(c1)nc(C)n2-c1cccc(C)c1, the “activity change, positive = activation” value is reported as inactive: -19.6%.
With O=C(Nc1ccc(C(=O)OCc2cc(=O)n3nc(C4CC4)sc3n2)cc1)c1cccc(F)c1 the “activity change, positive = activation” value was inactive: 0%.
With CCN(c1ccccc1)S(=O)(=O)c1ccc(NC(=O)c2cc(=O)c3ccccc3o2)cc1 the “activity change, positive = activation” value was inactive: -9.2%.
In the case of O=C(Nc1ccc(F)cc1)C1CCN(S(=O)(=O)c2ccc3c(c2)CCCN3C(=O)C2CCC2)CC1, the “activity change, positive = activation” value is reported as inactive: -29.9%.
For CCOC(=O)c1c(S(=O)(=O)N2CCC(C(=O)Nc3ncccc3C)CC2)c(C)n(C)c1C, the “activity change, positive = activation” value was inactive: 0%.
For CCOC(=O)c1cc(-c2ccc(OC)cc2)n(CCC(=O)NC2CCCCC2)c1C, the “activity change, positive = activation” value was inactive: -29.4%.
For COc1ccc2c(CNC3CCCCCC3)c(C(=O)O)n(Cc3ccccc3F)c2c1, the “activity change, positive = activation” value was inactive: -21.6%.
In the case of Cc1c(C(=O)OC2CCCCC2)[nH]c2c1C(=O)CC(c1ccc(C(C)(C)C)cc1)C2 (centres undefined), the “activity change, positive = activation” value is reported as inactive: -5.26%.
With CCC(=O)N1CCc2cc(Br)cc(S(=O)(=O)CCC(=O)N3CCN(c4cc(C)ccc4C)CC3)c21 the “activity change, positive = activation” value was inactive: 19.2%.
For CCCc1nnc(NC(=O)c2cc(=O)c3cc(C)c(C)cc3o2)s1, the “activity change, positive = activation” value was inactive: 6.19%.
For CCOC(=O)c1cnc2ccc(C)cc2c1Nc1ccc(N(CC)CC)cc1, the “activity change, positive = activation” value was inactive: -80.8%.
For CCOc1ccc(NC(=O)CCCc2nnc3n(C)c(=O)c4sccc4n23)cc1, the “activity change, positive = activation” value was inactive: -7.32%.
With O=C(NCc1ccccc1F)C(=O)NCC(c1ccco1)S(=O)(=O)c1cccs1 (centres undefined) the “activity change, positive = activation” value was inactive: -12.1%.
In the case of CC1=C(C(=O)Nc2ccccc2)C(c2cccc(Cl)c2)n2nc(SCC(=O)c3ccc(C)cc3)nc2N1 (centres undefined), the “activity change, positive = activation” value is reported as inactive: -0.659%.
In the case of O=C(CSc1nc(-c2ccccc2)nc2c1Cc1ccccc1O2)N1CCCCC1, the “activity change, positive = activation” value is reported as inactive: 8.46%.
In the case of Cc1ccc(Cn2c(=O)n(CCCCC(=O)NCc3ccccc3Cl)c(=O)c3ccccc32)cc1, the “activity change, positive = activation” value is reported as inactive: -48.5%.
For O=c1[nH]c2ccc(NCc3ccc(-c4ccccc4)o3)cc2[nH]1, the “activity change, positive = activation” value was inactive: -32.2%.
With Cc1cccc(OCC(=O)Nc2ccccc2C(=O)OCc2cc(=O)n3nc(C)sc3n2)c1 the “activity change, positive = activation” value was inactive: -0.621%.
For CCOc1ccccc1Nc1sc(C(=O)c2ccccc2)c(N)c1S(=O)(=O)c1ccc(C)cc1, the “activity change, positive = activation” value was inactive: 15.8%.
In the case of O=C(Nc1ccc2oc(-c3ccc4ccccc4c3)nc2c1)c1ccc(Cl)c(Cl)c1, the “activity change, positive = activation” value is reported as inactive: -9.02%.
For Cc1ccc(CCNC(=O)c2cc3c(-c4ccccc4F)nn(C)c3s2)cc1, the “activity change, positive = activation” value was inactive: -25.2%.
In the case of COc1ccc(OC)c(NC(=O)c2cn(CC(C)C)c(=O)c3cc(OC)c(OC)cc23)c1, the “activity change, positive = activation” value is reported as inactive: -26.5%.
In the case of Cc1ccc(NC(=O)c2ccc(Br)cc2)c(C(=O)c2ccccc2)c1, the “activity change, positive = activation” value is reported as inactive: -12.9%.
For Cc1nc2nc(SCC(=O)NCc3ccccc3)nn2c(C)c1Cc1ccccc1, the “activity change, positive = activation” value was inactive: -19.9%.
For CC(C)CC(=O)Nc1ccc(Cl)c(-c2nc3ccccc3[nH]2)c1, the “activity change, positive = activation” value was inactive: -17.7%.
In the case of COc1ccc(OC)c(CNC(=O)CN2C(=O)CCn3nc(-c4cn(C)c5ccccc45)cc32)c1, the “activity change, positive = activation” value is reported as inactive: -1.44%.
For N#Cc1ccc(NS(=O)(=O)c2ccc(-c3cnc(C4CC4)o3)cc2)cc1, the “activity change, positive = activation” value was inactive: -29.1%.
With CC(=O)Oc1ccccc1C(=O)O the activity change, positive = activation was “inactive”.
With CCc1cccc(NC(=O)CN2C=NS(=O)(=O)c3ccccc32)c1 the “activity change, positive = activation” value was inactive: -14.1%.
With CCOc1nc(NC(=O)NS(=O)(=O)Oc2ccccc2Cl)nc(-c2ccccc2)n1 the “activity change, positive = activation” value was inactive: 29.9%.
In the case of Cc1ccc(NC(=O)CCc2c(C)nc3nc(C)nn3c2C)c(Cl)c1, the “activity change, positive = activation” value is reported as inactive: -13.2%.
In the case of Cc1ccc(C)n1-c1nnc(N2CCCC(C(=O)NCc3ccccc3)C2)s1 (centres undefined), the “activity change, positive = activation” value is reported as inactive: 3.55%.
For COc1cc2nc(NCC(C)c3ccccc3)n3nc(-c4ccccc4)nc3c2cc1OC (centres undefined), the “activity change, positive = activation” value was inactive: -6.89%.
With CNC(=O)c1ccc(Nc2nnc(-c3ccc(C)c(S(=O)(=O)N4CCOCC4)c3)c3ccccc23)cc1 the activity change, positive = activation was inactive: 14.6% [at 11.5 µM, percent change from vehicle, -100% = no light].
In the case of CCOC(=O)c1ccccc1NC(=O)N(Cc1ccco1)C1CCN(C(C)=O)CC1, the “activity change, positive = activation” value is reported as inactive: -18.2%.
For Cc1ccc(N2CC(NC(=O)CCc3ccccc3)CC2=O)cc1 (centres undefined), the “activity change, positive = activation” value was inactive: -13.1%.
In the case of COc1ccccc1C(=O)NC(=O)Nc1ccc(-n2nc(C(F)(F)F)cc2C(F)(F)F)cc1, the “activity change, positive = activation” value is reported as inactive: -28.1%.
For CC1=C(C(=O)NCc2ccc(Cl)cc2)C2(CCCCCC2)OC1=O, the “activity change, positive = activation” value was inactive: -31.8%.
For COc1cccc(CSc2nc3n(n2)C(c2cccnc2)C(C(=O)Nc2ccccc2C)=C(C)N3)c1 (centres undefined), the “activity change, positive = activation” value was inactive: -4.9%.
With COc1ccc(-c2ccc3c(N)c(C(=O)Nc4cccc(C)c4)sc3n2)cc1 the “activity change, positive = activation” value was inactive: -3.06%.
For COc1ccccc1C(=O)Nc1ccc(C(=O)OCc2cc(=O)n3ccsc3n2)cc1, the “activity change, positive = activation” value was inactive: 24.2%.
For CCOC(=O)c1sc(NC(=O)c2cc3nc(-c4ccc(Br)cc4)cc(C(F)(F)F)n3n2)c(C(=O)OCC)c1C, the “activity change, positive = activation” value was inactive: -32.5%.
In the case of CCOC(=O)CCn1nc(C)c2c(C)n(-c3ccccc3)nc2c1=O, the “activity change, positive = activation” value is reported as inactive: -3.2%.
For Cc1cccc(N2CCN(C(=O)Cn3c(=O)c4cccn4c4ccc(F)cc43)CC2)c1C, the “activity change, positive = activation” value was inactive: -2.59%.
For COc1cccc(NC(=O)c2cc3c(=O)n(Cc4cccnc4)ccc3nc2C)c1, the “activity change, positive = activation” value was inactive: -2.48%.
For Cc1ccc(-c2nc(S(=O)(=O)c3ccc(C)cc3)c(SCC(=O)NC3CCCCC3)o2)cc1, the “activity change, positive = activation” value was inactive: -0.116%.
For COc1ccccc1CNC(=O)CCC1N=C2c3ccccc3N=C(SCC(=O)NCCc3ccc(OC)c(OC)c3)N2C1=O (centres undefined), the “activity change, positive = activation” value was inactive: -30.2%.
For CCc1ccc(-c2cc(C)no2)cc1S(=O)(=O)Nc1ccc(Cl)cc1, the “activity change, positive = activation” value was inactive: -41.9%.
With COc1ccc(-c2noc(-c3ccc(NC(C)c4ccccc4)c([N+](=O)[O-])c3)n2)cc1OC (centres undefined) the “activity change, positive = activation” value was inactive: -6.42%.
With CCOc1ccccc1CN(CCc1ccc2c(c1)OCO2)Cc1cccc(OC)c1OC the “activity change, positive = activation” value was inactive: -41.4%.
For CN(C)c1ccc(NC(=O)CSC2=Nc3ccccc3C3=NC(CC(=O)NCc4ccccc4)C(=O)N23)cc1 (centres undefined), the “activity change, positive = activation” value was inactive: -8.21%.
In the case of CCN1CCC(N(Cc2ccc3c(c2)OCO3)C(=O)Nc2ccccc2OC)CC1, the “activity change, positive = activation” value is reported as inactive: -8.41%.
For CCOC(=O)c1c(C)[nH]c(CCC(=O)NCc2ccccc2C)c1C, the “activity change, positive = activation” value was inactive: -9.77%.
For COc1cccc(C2CC(=O)N3CN(C4CCCCC4)CSC3=C2C#N)c1 (centres undefined), the “activity change, positive = activation” value was inactive: -16.2%.
For COc1cc(NC(=O)C(CCS(C)(=O)=O)N2Cc3ccccc3C2=O)cc(OC)c1OC (centres undefined), the “activity change, positive = activation” value was inactive: -0.901%.
